Results taken from article PMC7819943, “Rice protein-binding microarrays: a tool to detect cis-acting elements near promoter regions in rice”.
Some of the results follow.

biological target: T1, OsWOX13 (Oryza sativa, UniProt Q5QMM3 1-267); assay: protein-binding microarray (RPBM); PBS, 2% BSA, 51.3 ng/ul salmon testes DNA, 50 uM zinc acetate, 200 nM TF, 25 C, 1 h; high values mean tight binding; details: protein: recombinant; tags: N-terminal polyhistidine and DsRed monomer fusion (pET32a); label: CyDye5-dUTP incorporated in the synthesized complementary strand; 3' TTTTT single-stranded linker to array surface; dsDNA, one strand shown
T1 sequence: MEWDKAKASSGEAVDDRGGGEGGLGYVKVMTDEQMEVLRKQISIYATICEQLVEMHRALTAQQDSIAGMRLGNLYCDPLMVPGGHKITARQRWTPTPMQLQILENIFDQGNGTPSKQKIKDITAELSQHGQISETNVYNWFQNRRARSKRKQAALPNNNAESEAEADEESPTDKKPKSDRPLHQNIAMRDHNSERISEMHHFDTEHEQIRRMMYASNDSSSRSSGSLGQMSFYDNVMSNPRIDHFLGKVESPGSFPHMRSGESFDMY
In short: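 Per-feature fluorescence intensity (arbitrary units), read on an Axon 4000B scanner, is the binding signal. Transcription factors carrying an N-terminal polyhistidine tag and DsRed fusion were expressed in E. coli BL21-CodonPlus and purified on Ni–NTA. A custom Agilent array, made double-stranded by primer extension with Cy5-dUTP and blocked with 2% BSA, was incubated with 200 nM protein in PBS, 2% BSA, salmon testes DNA and 50 µM zinc acetate at 25 °C for 1 h and then washed.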

Row | Sequence | binding signal
1 | ATTAAATTACACTCTGTTCATGCAGTTCAGTCGACGTTATCGGAGTCACCTAGTGCAG | 13100 fluorescence intensity (a.u.)
2 | AAGATTACAAATCTTGTGTTTGTCTTGTTGCCACTGCCGCCGGAGTCACCTAGTGCAG | 4420 fluorescence intensity (a.u.)
3 | ATTATGGTAATTAATCACTAATTTTGGACCAGAGATTCGGCGGAGTCACCTAGTGCAG | 29400 fluorescence intensity (a.u.)
4 | TAAAGATGCAATGACTACTAATCAACGTACCATGTACTCCCGGAGTCACCTAGTGCAG | 4660 fluorescence intensity (a.u.)
5 | AAATTTATGTAATTATTATTTATTTTATTGTGACTTGATTCGGAGTCACCTAGTGCAG | 8590 fluorescence intensity (a.u.)
6 | TAACGGGTTGACTCAATCACTGAAATTGTTTAATGGTAGACGGAGTCACCTAGTGCAG | 7170 fluorescence intensity (a.u.)
7 | CCAATGACTGCTATTGTGATGACTTTGGGAGGAAAAGGAGCGGAGTCACCTAGTGCAG | 16400 fluorescence intensity (a.u.)
8 | ATTACTGGTTAACCGATTGAAGTGTCTCATTGACAAGAGGCGGAGTCACCTAGTGCAG | 3470 fluorescence intensity (a.u.)
9 | ATAGTTATTTGATCAGTTATTGTTACACTATACATTGACACGGAGTCACCTAGTGCAG | 4450 fluorescence intensity (a.u.)
10 | GAAATTGAAGATGATGTGACTGAAAAGTTGTGTATATGACCGGAGTCACCTAGTGCAG | 17200 fluorescence intensity (a.u.)
11 | TTAGTGTTAATTATATTAAGTAATTTAGTTAGTTAAGAGACGGAGTCACCTAGTGCAG | 23700 fluorescence intensity (a.u.)
12 | CTGATAGATAATGACCTAGCTTGACTATTCTGATAGATACCGGAGTCACCTAGTGCAG | 26300 fluorescence intensity (a.u.)
13 | TTGATCATTAACGAGGTAATTAATTTAATCTAATCCAATCCGGAGTCACCTAGTGCAG | 22200 fluorescence intensity (a.u.)
14 | AGCTGCTAATTACTGTACACCTGTCACCTCTGGCAGCAGACGGAGTCACCTAGTGCAG | 18200 fluorescence intensity (a.u.)
15 | TCTCTTGATTTCTTTTCTCTCTCAACTCTGTTCTGTTATCCGGAGTCACCTAGTGCAG | 9300 fluorescence intensity (a.u.)
16 | GGATTAATTAGGCTTAATAGGTTCGTCTCACAGTTTACAGCGGAGTCACCTAGTGCAG | 39100 fluorescence intensity (a.u.)
17 | AATTTAAATTTAAACAGGATGGCAAACACACCCCATATCCCGGAGTCACCTAGTGCAG | 23800 fluorescence intensity (a.u.)
18 | CTGGAATGAGTGGTGGTTGATTGTTTAGTGTTTACTGTTCCGGAGTCACCTAGTGCAG | 18500 fluorescence intensity (a.u.)
19 | TTAATGTAGTTATCAATTTCGTTCATTTGCTTGAATTGGACGGAGTCACCTAGTGCAG | 4130 fluorescence intensity (a.u.)
20 | TTGCTACCATTCAATCAACATCTGGAGCAGATTACATATGCGGAGTCACCTAGTGCAG | 10400 fluorescence intensity (a.u.)
21 | GTGTCAATTTTAATAGAATAGAATGGAATCATTGGATACTCGGAGTCACCTAGTGCAG | 5620 fluorescence intensity (a.u.)

Row | Sequence | binding signal
22 | ACGTAAACTGAAATTTACAAAGGGACTATACTCCAGTAATCGGAGTCACCTAGTGCAG | 11100 fluorescence intensity (a.u.)
23 | AACAATTGACAAACTGATTCTGCTCGCCTCTGTCCCCTTTCGGAGTCACCTAGTGCAG | 46800 fluorescence intensity (a.u.)
24 | CATGGATGGATTGGATGCTGTTGCTATGGCCGCGAGGTTGCGGAGTCACCTAGTGCAG | 4440 fluorescence intensity (a.u.)
25 | GGAAATCCCAATTAGTTAATTAAGGGTGTAATTAGCAAACCGGAGTCACCTAGTGCAG | 21300 fluorescence intensity (a.u.)
26 | AGGGGTTGGTAATTGGCAGGGAATTCCTCCTTTACTTCGCCGGAGTCACCTAGTGCAG | 15400 fluorescence intensity (a.u.)
27 | GCCCTTGCGGATTGATGAGATCCTCTGCAGTCACTTTACCCGGAGTCACCTAGTGCAG | 5400 fluorescence intensity (a.u.)
28 | CTTTCTTTGACTGTTGCCTTTTATTTTGTGCAGGTTGTATCGGAGTCACCTAGTGCAG | 4690 fluorescence intensity (a.u.)
29 | GGATTTAGATTGAGATCTTTGGCACAGCTTAGACTCAACACGGAGTCACCTAGTGCAG | 43000 fluorescence intensity (a.u.)
30 | TTTCCTAATTAATTATTAGGTATTACAAATGGATTTTGGACGGAGTCACCTAGTGCAG | 36900 fluorescence intensity (a.u.)
31 | TTAATTGGTTAGATTTCTTGTGGTGAAACCAACCCACATGCGGAGTCACCTAGTGCAG | 39500 fluorescence intensity (a.u.)
32 | TGGATAATTAAGCTCATGAGACGACAACGAACAATGAATGCGGAGTCACCTAGTGCAG | 8610 fluorescence intensity (a.u.)
33 | TTGAGATTTACCATTCATTTGTTAAGATTATTCTAGGACGCGGAGTCACCTAGTGCAG | 5230 fluorescence intensity (a.u.)
34 | ACTTATTGATTTACGCATTTTAAGACAAATTTATGATATTCGGAGTCACCTAGTGCAG | 29100 fluorescence intensity (a.u.)
35 | GGTAAGCCTAATTATCTAAAGAAATCTCGCAAGGCCCTCTCGGAGTCACCTAGTGCAG | 4060 fluorescence intensity (a.u.)
36 | TATAATAAATTTATTTTGAATGTATCTATATTCATATTATCGGAGTCACCTAGTGCAG | 11200 fluorescence intensity (a.u.)
37 | GAAGGTGATTTGTGCGGCATTGAGTTTGGGATCGGAAGAGCGGAGTCACCTAGTGCAG | 9710 fluorescence intensity (a.u.)
38 | AAAGCAATCATTATCCGAGGTGTCACACCATCCATCCTCTCGGAGTCACCTAGTGCAG | 7410 fluorescence intensity (a.u.)
39 | ATGATTTGAGCCGCCTGTTTGGTGATGTAACGAGGTCGCTCGGAGTCACCTAGTGCAG | 13000 fluorescence intensity (a.u.)
40 | GCTCAAATCATAAATTGTTTCAATCTTTTACATACTCTTGCGGAGTCACCTAGTGCAG | 15100 fluorescence intensity (a.u.)
41 | ATATGTGAAATTAAATTGAAACGAAGTACAGATAGTTAAACGGAGTCACCTAGTGCAG | 7160 fluorescence intensity (a.u.)
42 | AAAATTTAACCATAACTCATCTATCAATGCCCCTTGGTCACGGAGTCACCTAGTGCAG | 3960 fluorescence intensity (a.u.)
